The results in this text go back to PubChem BioAssay AID488969 (Vanderbilt High Throughput Screening Facility, 2010).

Whole data set: some 110,000 compounds, median “z-score” near -0.1, cut for the highest 2% near 2. The list shows a part of the results. Active and inactive are the calls of the source.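 Rule for the calls: active = z-score in the third read window above 3 or below -3; inactive = the rest.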

For the experiment, the target named is Metabotropic glutamate receptor 8 (Rattus norvegicus) (UniProt P70579). Description: rat mGluR8 modulators via GIRK flux, primary screen, cell-based, thallium flux, HTS (AID 488969). The note with it: HEK293 rat mGluR8, GIRK (G protein-gated inwardly rectifying potassium channel) thallium flux, FluoZin2; at 10 µM; stronger effect = higher value; submaximal glutamate (EC20) added with thallium.
Sequence of UniProt P70579 (P70579 whole entry, looked up): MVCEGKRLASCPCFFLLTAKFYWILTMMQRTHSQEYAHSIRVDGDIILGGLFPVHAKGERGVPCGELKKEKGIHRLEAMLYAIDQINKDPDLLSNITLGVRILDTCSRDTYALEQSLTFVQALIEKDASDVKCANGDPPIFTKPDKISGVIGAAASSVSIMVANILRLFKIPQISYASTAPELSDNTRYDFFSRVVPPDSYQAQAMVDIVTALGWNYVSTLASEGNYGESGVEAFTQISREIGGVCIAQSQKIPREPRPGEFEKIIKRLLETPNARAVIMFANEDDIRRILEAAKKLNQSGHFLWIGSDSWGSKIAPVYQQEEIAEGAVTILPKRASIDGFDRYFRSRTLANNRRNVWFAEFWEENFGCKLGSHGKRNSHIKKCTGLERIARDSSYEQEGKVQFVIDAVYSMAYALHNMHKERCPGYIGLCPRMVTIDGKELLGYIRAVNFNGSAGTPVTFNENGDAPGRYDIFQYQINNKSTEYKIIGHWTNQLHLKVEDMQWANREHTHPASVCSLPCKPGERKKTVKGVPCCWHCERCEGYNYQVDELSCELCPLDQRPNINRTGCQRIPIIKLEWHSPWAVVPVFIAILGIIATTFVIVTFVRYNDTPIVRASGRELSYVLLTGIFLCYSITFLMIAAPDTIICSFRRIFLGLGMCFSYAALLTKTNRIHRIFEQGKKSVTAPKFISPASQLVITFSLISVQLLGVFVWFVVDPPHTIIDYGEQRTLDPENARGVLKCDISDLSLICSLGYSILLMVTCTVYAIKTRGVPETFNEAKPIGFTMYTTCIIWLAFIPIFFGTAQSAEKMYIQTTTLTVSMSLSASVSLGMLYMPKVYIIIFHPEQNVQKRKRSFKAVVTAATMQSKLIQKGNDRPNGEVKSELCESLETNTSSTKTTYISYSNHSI
Turning to `Cc1nc([N+](=O)[O-])c(N2CCN(C)CC2)n1Cc1ccccc1`, the z-score is 0.0875.
The result for `Clc1ccc(-c2cc3ccccc3nc2N2CCCC2)cc1` reads 0.195; that for `Cc1cccc(NC(=O)c2ccc(-n3cccn3)c([N+](=O)[O-])c2)c1`, -0.236; that for `CC(=O)c1cn(C)c(=O)n(C)c1=O`, 0.4.
On to `O=C(Nc1cccc(Cl)c1)O/N=C\c1ccncc1`, for which the z-score was determined as 0.302.
Under `O=C(NCCc1ccccc1)C1CCCN(C(=O)NC2CCCCC2)C1` (stereo not given) stands -0.517.
Under `Cc1c(C(=O)O)sc(=S)n1-c1ccccc1` stands -0.78; under `CC12C=CC3(CN(Cc4ccccc4)C(=O)C3C1C(=O)NCc1ccco1)O2` (stereo not given), 0.605.
`O=c1c2c3c(sc2n(CCN2CCCCC2)c(=O)n1Cc1ccco1)CCCCC3` returned a z-score of -0.542.
In the case of `O=C(Cc1ccccc1)N/N=C/c1ccc(Cl)cc1Cl`, the z-score was -0.358.
Under `CCOC(=O)c1ccc(-n2c(C)nc3c(cnn3-c3ccc(Cl)cc3)c2=O)cc1` stands -0.0713.
For `Cc1nnc(SCc2ccc3c(c2)OCO3)s1`, the z-score came to 0.00689.
Turning to `Cc1ccc(-c2noc(/C=C/c3ccccc3)n2)cc1`, the z-score is -0.25.
The result for `CC1=Nn2c(nnc2-c2ccccc2)SC1` reads 0.393; that for `COc1ccc(/C=C/c2cc(-c3ccc(C)cc3)o[n+]2C)cc1`, -0.0315.
The result for `Cc1ccc(-c2nc(SCC(=O)N(C)C3CCS(=O)(=O)C3)[nH]c2-c2ccc(C)cc2)cc1` (stereo not given) reads 0.385.
For `CCOc1ccc2c(c1)OC(c1ccc(OC)cc1)(C(F)(F)F)NC2=O` (stereo not given), the z-score was -0.269.
The result for `Oc1ccc(Cl)cc1C1=NNC(c2ccc(Cl)cc2)C1` (stereo not given) reads 0.535.
Under `CCOc1ccc(S(=O)(=O)N(CC(N)=O)c2ccc(C)cc2)cc1` stands 0.0453; under `CC(=O)Nc1ccc(NC(=O)C(C)O/N=C/c2cccc([N+](=O)[O-])c2)cc1` (stereo not given), -0.151; under `O=C(N1CCCCCC1)n1c(Cc2ccccc2)nc2ccccc21`, -0.169.
The result for `COc1cc(C(N)=O)ccc1OCc1ccccc1` reads 0.79; that for `Cc1occc1-c1nnc(SCC(=O)N2CCCc3ccccc32)n1Cc1ccco1`, 0.137; that for `CCN(CC)S(=O)(=O)c1cccc(-c2nnc(SCC(=O)NC3CCCC3)n2N)c1`, 0.127.
With `O=C(Nc1ccc2c(c1)OCO2)c1cc2ncc(Br)cn2n1`, the z-score is 0.218.
`CC1(C)CC2CC(C)(CN2C(=O)COc2cccc3ccccc23)C1` (stereo not given) came in with a z-score of 0.21.
Under `N#Cc1nc(-c2cccc3ccccc23)oc1NCCN1CCOCC1` stands -0.831; under `O=C(NC(NC(=S)Nc1c(Cl)cc(Cl)cc1Cl)C(Cl)(Cl)Cl)OCc1ccccc1` (stereo not given), -0.119.
The result for `CCOC(=O)C1=C(C)N=C2SCCC(=O)N2C1c1ccc(C(=O)OC)cc1` (stereo not given) reads 0.053.
For `O=C(NCCc1ccncc1)c1ccccc1F`, the z-score is -0.0962.
Under `Oc1ccccc1C1=Nc2nc3ccccc3n2C(c2ccccc2)C1` (stereo not given) stands -1.59; under `CC(C)CC(NC(=O)C(CC(C)C)NC(=O)OC(C)(C)C)C(N)=O` (stereo not given), 0.314.
`Cc1ccc(C(C(=O)NC2CCCCC2)N(CC2CCCO2)C(=O)CNC(=O)c2cccs2)cc1` (stereo not given): the z-score was -0.135.
The result for `Cc1cc(/C=C2/SC(=O)NC2=O)c(C)n1-c1ccc(N2CCOCC2)cc1` reads -0.169; that for `C=CCSc1nc2c(c(=N)n1CC=C)C1CCCC1S2` (stereo not given), -0.276; that for `Cc1cc(C)nc(NC(=O)C(C)C)n1`, -0.00451.
Under `O=C(CC(=O)c1cc(Cl)ccc1O)c1ccccc1` stands active: 3.32; under `O=S(=O)(c1cccs1)N1CN(Cc2ccc(F)cc2)c2nc3ccccc3nc21`, -0.376.
In turn, `CCCCC(=O)NC(c1ccccc1Cl)c1c(O)ccc2ccccc12` (stereo not given) yielded a z-score of 0.086.
The result for `O=C(NC(=S)Nc1ccc2[nH]ncc2c1)c1ccccc1` reads -0.139; that for `Cn1c(SCC(=O)N2CCCc3ccccc32)nnc1-c1ccccc1`, -0.547.
As for `O=C(Nc1ccccn1)C12CC3CC(CC(C3)C1)C2`, the z-score is -0.292.
On to `N#Cc1cc([N+](=O)[O-])c(-n2nnc3ccccc32)c([N+](=O)[O-])c1`, for which the z-score is -0.082.
For the molecule `COc1cc(NC(=O)c2c(F)c(F)c(F)c(F)c2F)c(OC)cc1Cl`, the z-score was -0.246.
Molecule `CCOC(=O)N1CCN(C(=O)C2CCN(S(=O)(=O)c3ccc(Cl)cc3)CC2)CC1` gave a z-score of 0.0191.
In the case of `CCOC(=O)CC12CN3CN(C1)CC(CC(=O)OCC)(C3)C2=O`, the z-score was -0.0089.
Consider `CC(OC(=O)c1cc(S(=O)(=O)Nc2ccc(F)cc2)ccc1Cl)C(=O)Nc1ccc2c(c1)OCCO2` (stereo not given), for which the z-score is -0.101.
Turning to `O=C(NCc1ccc(OC(F)(F)F)cc1)C1CC(c2ccccc2[N+](=O)[O-])=NO1` (stereo not given), the z-score is -0.0635.
The result for `N#Cc1c(-c2cccc(F)c2)cc(-c2ccccc2)nc1Br` reads -0.125.
Under `COc1ccc(C(=O)Cc2cnn(-c3ccccc3)c2)c(O)c1` stands -0.0429; under `COc1ccc(C2=C/C(=C\c3cccc(OC(C)=O)c3)C(=O)O2)cc1`, -1.6; under `CCOC(=O)N1CCN(C(=O)c2ccccc2Oc2ccccc2)CC1`, -0.091.
Under `CCC(=O)c1ccc(OC(=O)c2cccs2)cc1` stands 0.0687; under `Cc1cc(C(=O)OCC(=O)Nc2ccccc2F)c(C)o1`, -0.195; under `O=C(NCc1ccco1)c1ccccc1NS(=O)(=O)c1ccc(Cl)s1`, -1.14.
`CC(=O)Nc1ccc(S(=O)(=O)NNC(=O)COc2cccc(C)c2)cc1` registered a z-score of -0.303.
The result for `Cc1cc(F)c(F)c(C(=O)N2CCOCC2)c1Cl` reads 0.284; that for `CC(=O)Nc1ccc(S(=O)(=O)N2CCC(NC(=O)c3ccco3)CC2)cc1`, 0.0137; that for `CCN(CC)CCCn1c(C)cc2c(c1=O)C(c1cccc(Cl)c1)C(C#N)=C(N)O2` (stereo not given), 2.38.
The result for `COCCCNC(=O)c1ccc(Cn2c(=O)c3ccccc3n(Cc3ccccc3C)c2=O)cc1` reads -1.76; that for `CC(=O)NC(Cc1ccccc1)C(=O)NC1CCN(c2ncccc2[N+](=O)[O-])CC1` (stereo not given), 1.6.
With `CCc1nnc(NC(=O)C(=O)NCCOC(=O)c2ccccc2)s1`, the z-score was -0.014.
`O=C(CSc1ccccc1C(=O)NCc1ccccc1)NC1CCCCCCC1` registered a z-score of -0.317.
The result for `Cc1cccc(-n2c(Cc3cc(=O)[nH]c(=O)[nH]3)nnc2SCC(=O)N2CCCCC2)c1` reads -0.186.
`CCOC(=O)CN1C(=O)Nc2ccc(Br)cc2C1c1ccccc1` (stereo not given) came in with a z-score of -0.26.
Molecule `Cc1cc(=O)[nH]c(SCc2nnc(-c3ccccc3)o2)n1` came in with a z-score of -0.298.
`COc1ccc(/C=C/C(=O)c2cc(F)ccc2OC(=O)c2ccccc2C)cc1OC` displayed a z-score of -0.109.
In turn, `Cc1ccc(Nc2nnc(C3C(=O)N(C)C4(C)CC3c3cc(Br)ccc3O4)s2)cc1` (stereo not given) gave a z-score of 0.0607.
The result for `CCC(=O)N1CCN(c2ccccc2NC(=O)COc2cccc(C)c2)CC1` reads active: 13; that for `Cc1ccc(Nc2cc(C)nc(N3CCOCC3)n2)cc1`, -0.644; that for `CCOC(=O)c1ccc(Cl)c(NC(=O)c2ccc(-c3ccccc3)cc2)c1`, 0.494.
`CC(C)C(=O)Nc1ccc(C(=O)NCc2cccnc2)cc1` displayed a z-score of 0.334.
The result for `CN1/C(=C\C=C(/C#N)C(=O)Nc2ccc(Cl)cc2)C(C)(C)c2ccccc21` reads -2.23; that for `COC(=O)c1ccccc1NC(=O)CSc1nnnn1-c1ccc(C)cc1C`, -0.571.
Under `Cc1nc2nc(SCC(=O)NCCN3CCOCC3)nn2c(C)c1Cc1ccccc1` stands 0.727; under `O=C(Nc1ccc(Cl)cc1)c1cc(S(=O)(=O)N2CCOCC2)cs1`, -0.483.
Under `O=C(OCn1ncc(Cl)c(Cl)c1=O)c1ccc(F)cc1` stands -0.856.
Molecule `CC(C)(C)n1nnnc1C(c1cccs1)N(Cc1cccnc1)CC1CCCO1` (stereo not given) returned a z-score of -0.58.
`C=CCN1/C(=C(\C#N)C2=NS(=O)(=O)c3ccccc32)N(C)c2ccccc21`: the z-score was -0.188.
The result for `CCOC(=O)c1ccc(-c2cccc(C(F)(F)F)c2)nc1C` reads 0.158; that for `OC(COCc1ccc2c(c1)OCO2)CN1CCN(Cc2ccccc2)CC1` (stereo not given), -0.00855.
The molecule `CC(C)C(=O)NC(=S)Nc1ccccc1C(F)(F)F` came in with a z-score of 0.0217.
Turning to `Cc1ccc(S(=O)(=O)N(CC(=O)N=Nc2c(O)[nH]c3ccccc23)c2cccc(C)c2)cc1`, the z-score came out at 1.16.
As to `c1csc(CNCCCN2CCOCC2)c1`, the z-score was 0.0584.
The molecule `COC(=O)c1cccc(C(=O)Nc2cnc3ccccc3c2)n1` had a z-score of 0.355.
As to `Cc1ccc(S(=O)(=O)N2c3cc(C)ccc3OCC2C(C)(C)C)cc1` (stereo not given), the z-score was -0.132.
The molecule `CCCCNC(=O)C(NS(=O)(=O)c1cccc2nsnc12)c1ccccc1` (stereo not given) gave a z-score of 0.117.
Under `CCC(=O)Nc1ccc(-c2nn3c(C)nnc3s2)cc1` stands 0.282.
The result for `S=C(c1ccccc1)N1CCCc2ccccc21` reads -0.863; that for `CCC(=O)Nc1ccc(S(=O)(=O)Nc2ccc(Cl)nn2)cc1`, -0.125.
Under `Cc1ccc(/C=N/NC(=S)NC(C)C)o1` stands -0.11; under `Cc1c(C(=O)NC(C)c2ccccc2)c(-c2ccccc2)nn1-c1ccccc1` (stereo not given), 0.203.
For `COC(=O)CCS(=O)(=O)c1ccc(NC(C)=O)cc1`, the z-score stood at 0.191.
In turn, `COc1cc(C(=O)NCCCNc2ccc([N+](=O)[O-])cc2)cc(OC)c1OC` returned a z-score of 0.339.
In turn, `Cc1ccccc1C(=O)NC(=S)Nc1ccc(Oc2ccc(Cl)cc2)cc1` gave a z-score of 2.74.
`COc1ccc(C(=O)Nc2nnc(-c3cccs3)s2)cc1` returned a z-score of -0.0882.
The result for `Cn1c(N2C(=O)CC(Cc3ccccc3)C2=O)nc2ccccc21` (stereo not given) reads -0.0941; that for `Cn1cnnc1SCc1nc(N)nc(Nc2ccccc2)n1`, -0.167; that for `CCOC(=O)C1CCN(C(=O)Cc2c(C(=O)O)n(C)c3ccccc23)CC1`, -0.00284.
For the molecule `Cc1ccccc1C(=O)NC1CCN(Cc2nnnn2CCc2ccccc2)CC1`, the z-score is -0.0124.
The result for `CC(C)Oc1cccc(C(=O)Nc2ccc(CN3CCOCC3)cc2)c1` reads -0.248.
Under `Cc1ccc(S(=O)(=O)N(C)CC(=O)Nc2ccncc2)cc1` stands 0.186; under `CCC(C)(C)NC(=O)C(c1cccs1)N(CC1CCCO1)C(=O)Cn1nnc2ccccc21` (stereo not given), 0.00257; under `OCCn1nc2c3ccccc3nc-2n(-c2ccccc2)c1=S`, 0.797.
For `Cc1ccc(NC2=C(NC(=O)c3ccccc3)C(=O)c3ccccc3C2=O)cc1Cl`, the z-score was -0.235.
The result for `CC(=O)c1cccc2c(O)c(C3=Nc4ccccc4C3=O)[nH]c12` reads -0.493; that for `CCOc1ccc2[nH]c(C)c(CN3CCN(CC)CC3)c(=O)c2c1`, 0.635.
The molecule `O=C(C1CCC(C(=O)N2CCc3ccccc32)CC1)N1CCc2ccccc21` (stereo not given) displayed a z-score of -0.247.
Under `COc1cc(C(=O)OCC(=O)Nc2cc(C)on2)ccc1OCc1ccccc1Cl` stands 0.416.
Regarding `CN1C(=O)/C(=C/c2ccccc2OCc2cccc(F)c2)NC1=S`, the z-score stood at 0.125.
